Results as given in paper PMC12136788.
The list shows a part of the results.

B1: chr12:907890:907991:+|CDS|ENSG00000060237|msi1|FALSE|bound_elsewhere (ssRNA)
RNA: GGGAGUUCUACAGUCCGACGAUCGCCUCCUGCCAUGACGUCCAGCAGGAAGGGCACAUUCACAGAUGACUUGCACAAGUUGGUAGACAAUUGGGCCCGAGAUGCCAUGAAUCUCUCAGGCAGGAGAGGAAGCAAAGGGCACAUCAACAGAGGAUUGAGCAUCA
B2: chr12:123586815:123586897:+|5pUTR_CDS|ENSG00000086598|msi1_unk|FALSE|overlapping (ssRNA)
RNA: GGGAGUUCUACAGUCCGACGAUCGAAUCCAGUGGGAAAUACACAUUUGCUGCUCACAUGGAUGGAACAUACAAAUUUUGUUUUAGUAACCGGAUGUCCACCAUGACUCCAAAAAUAGUGAUGUUCACCAUUGAUAUUGGGGAGCAACAGAGGAUUGAGCAUCA
B3: chr17:4669773:4671531:-|three_prime_utr|ENSG00000141456|control|control|control (ssRNA)
RNA: GGGAGUUCUACAGUCCGACGAUCACUUCAUCGAUUGUCCCCCUGAUGAUGAGAAGCCACCACCUCCCACAGAGCCUGACUCCUAGCCAUCUUCUGCACCCCACUCUUUGUUUCCAAUAAAGUUAUGUCCUUAGAUAGCGACUGCAACAGAGGAUUGAGCAUCA
B4: chr5:122065063:122065164:-|3pUTR|ENSG00000113083|msi1|total|mutant (ssRNA)
RNA: GGGAGUUCUACAGUCCGACGAUCUCAACUGGCGGAUACCGCGGUACAUAUGAUCCUCCGCCACCAGGGCACAAGCUUACCAGCCGACAAUACAGACAGAGCUUUUGUUGAGCUGUAACUGAGCUAUGGAACCGCUUCUUUGAUCAACAGAGGAUUGAGCAUCA
B5: chr20:3649766:3649867:+|3pUTR|ENSG00000088812|unk|FALSE|bound_elsewhere (ssRNA)
RNA: GGGAGUUCUACAGUCCGACGAUCAAGUUCAAAGACUAACCUGUAGCAAUCAGACUUUCCAAAAGGGGGUUCUCCAUUUUUUGUAGUUUUGUCUAAAUUUUUAAUGACCAUUUCCUGGAAUCAGUUUAUUAUACUGAAAACUGGCAACAGAGGAUUGAGCAUCA
B6: chr11:113276847:113276948:+|3pUTR|ENSG00000149294|msi1|total|mutant (ssRNA)
RNA: GGGAGUUCUACAGUCCGACGAUCAGAAGGGAAAAGCCAGCCCUUUGUACCGAAAUUUUGCUUUUUUUUCCCUCAUUCUACUUCCGAACUGCAAGCUUGUGCACUGUGGAUGCGUGAAUAUUUCCGUGUGAAACGUGUUUUUGUCAACAGAGGAUUGAGCAUCA
B7: chr3:25596636:25596694:+|3pUTR|ENSG00000077092|msi1_unk|FALSE|overlapping (ssRNA)
RNA: GGGAGUUCUACAGUCCGACGAUCUCCCCAGUACCUUCAGUUCCAGGAUUUAAAAUGCAAGAAAAAACAUUUUUACUGCUGCUUAGUUUUUGGACUGAAAAGAUAUUAAAACUCAAGAAGGACCAAGAAGUUUUCAUAUGUAUCCAACAGAGGAUUGAGCAUCA
B8: ENSG00000149257:stop:overlap|stop_codon|ENSG00000149257|stop_codon|NA|stop_codon (ssRNA)
RNA: GGGAGUUCUACAGUCCGACGAUCCCCUGCUAUUCAUUGGGCGCCUGGUCCGGCCUAAGGGUGACAAGAUGCGAGACGAGUUAUAGGGCCUCAGGGUGCACACAGGAUGGCAGGAGGCAUCCAAAGGCUCCUGAGACACAUGGGCAACAGAGGAUUGAGCAUCA
B9: chr1:24839915:24840022:+|CDS|ENSG00000169504|unk|total|mutant (ssRNA)
RNA: GGGAGUUCUACAGUCCGACGAUCACCCUGCAGAAACUGGAUGAAUAUCUGAAUUCUCCUCUCCCUGAUGAAAUUGAUGAAAACCGUAUGGAGGACAUAAAGUUUUCUACACGUAAAUUUCUGGAUGGCAAUGAAAUGACAUUACAACAGAGGAUUGAGCAUCA
B10: chr11:36273890:36273991:-|3pUTR|ENSG00000110442|msi1|FALSE|unique (ssRNA)
RNA: GGGAGUUCUACAGUCCGACGAUCGGUGAAGAAGUGGGAAUAAUUGGAACUAAACAACAGUUCUAAAACUUCCAUGAUUUUUGUAGCUUCUUUUGUCCCCAAGUUGAAGCUUUUGGCCAGUACCUUCUCUAGUUUUUAAAGAUGCAACAGAGGAUUGAGCAUCA
B11: chr10:62095068:62095169:+|3pUTR|ENSG00000150347|msi1|FALSE|unique (ssRNA)
RNA: GGGAGUUCUACAGUCCGACGAUCCCAUUUGCUUCAAUUAAUUAUUUACCUUCCUGUGGAAUAAUAUAUAUAUAUAUAUUUAAUAGAACCAUAGAUAGACUAGUAGAAUUUAGAUUAUAAAUGUGUGAGUGCAGAUUAUCCUGCCAACAGAGGAUUGAGCAUCA
B12: chr20:54218986:54219149:+|CDS|ENSG00000101132|unk|total|mutant (ssRNA)
RNA: GGGAGUUCUACAGUCCGACGAUCAAAUUUGCAAGAAGAAAUUGACGCCUCCGAAUCCAGAGUGGAAUCAAUUCAGCGAGUGUCCGCAGAUUUGAAAGUUCAGUUGUAUGCAAAAUUCGGGAGCAACAUAAACCUUGAAGCUGACAACAGAGGAUUGAGCAUCA
B13: chr3:21421216:21421447:-|CDS|ENSG00000151789|control|control|control (ssRNA)
RNA: GGGAGUUCUACAGUCCGACGAUCAUUAGUAUUUUCAAAAGAACCUUCAAAGCCAUUGGCUCCACGAAUUCUACCAAAUCCUCUAGCAGCUGCAGCAGCCGCAGCAGCAGUGGCAGUGAGUUCCCCCUUCAGUCUUCGAACUGCCAACAGAGGAUUGAGCAUCA
B14: chr18:55223968:55224079:-|3pUTR|ENSG00000196628|unk|FALSE|unique (ssRNA)
RNA: GGGAGUUCUACAGUCCGACGAUCUAUAAAGCUUUGUUUGUCUAGUGCUCUUUUGCUAUAAAAUAGACUGUAGUACACCCUAGUAGGAAAAAAAAAAAACUAAAUUUAAAAAUAAAAAAUAUAUUUGGCUUAUUUUUCGCAGGACAACAGAGGAUUGAGCAUCA
B15: chr7:76302746:76302847:+|CDS|ENSG00000106211|unk|total|mutant (ssRNA)
RNA: GGGAGUUCUACAGUCCGACGAUCGUCCCCUUCUCGCUCCUGCGGGGCCCCAGCUGGGACCCCUUCCGCGACUGGUACCCGCACCGCCGCCUCUUCGACCAGGCCUUCGGGCUGCCCCGGCUGCCGGAGGAGUGGUCGCAGUGGCAACAGAGGAUUGAGCAUCA
B16: chr8:143803364:143803465:-|CDS|ENSG00000180900|msi1|total|mutant (ssRNA)
RNA: GGGAGUUCUACAGUCCGACGAUCACCCUCACCGUGCUGGUCUGUGACGGCUUUGAGGCCAGCACCGACGCAGCCCUGGAGGUCCGCGAUCCCGCCCCGGGGACCGGGCCUCCCUCUGGCCCAGCCCAAGGUGUUGUGAGCCGCCAACAGAGGAUUGAGCAUCA
B17: chr3:58425360:58425463:+|3pUTR|ENSG00000168297|unk|FALSE|unique (ssRNA)
RNA: GGGAGUUCUACAGUCCGACGAUCAGACAGCUCCUAGAAACAUUCCUCUUACAGUUCAUUUCUCUAAAGCAUUUUCUGAUUCUUAGAUAACUCCAAUUUUUGCUACCUUUAUCUUAGACAUUAACACUAUAGCCCAAAGCAUAGCAACAGAGGAUUGAGCAUCA
B18: ENSG00000198589:be:win_6551|CDS|ENSG00000198589|bound_else_gene|NA|bound_elsewhere_windowed (ssRNA)
RNA: GGGAGUUCUACAGUCCGACGAUCGACGUAUUUCAUUAGCUAGUCCACGUCAGCUUUUUAAGGCUUCUAAUAUGACCCAGCGAUGGCAACACAGAGAGAUAUCUAAUUUUGAGUACUUGAUGUUUCUCAACACGAUAGCAGGACCAACAGAGGAUUGAGCAUCA
B19: chr1:85267750:85267865:-|CDS|ENSG00000142867|unk|total|mutant (ssRNA)
RNA: GGGAGUUCUACAGUCCGACGAUCAGGAGAAUCCAGCACGACGCCCUUUUUUUCUACUAAUUCUUCUCUGAAUUUGCCUGUUCCCGAAGCCGGCAGAACUGAAAAUACCAUCUUCUCUUCAACUACACUUCCCAGACCUGGGGACAACAGAGGAUUGAGCAUCA
B20: chr21:29063390:29063550:-|CDS|ENSG00000156261|unk|total|mutant (ssRNA)
RNA: GGGAGUUCUACAGUCCGACGAUCGUUUACUUGUUUUGCCAGGGAACAGUGUUGAUAAAGACUGCUGAAGAAUUGAUGAAUUUCCGUAAGGGAGAAGAAAACCUCAUGGAUGCACAAGUCAAAGCUAUUGCUGAUACUGGUGCACAACAGAGGAUUGAGCAUCA
B21: chr9:69711526:69711627:-|3pUTR|ENSG00000188647|unk|FALSE|unique (ssRNA)
RNA: GGGAGUUCUACAGUCCGACGAUCGAACUGCUGUAGUCUUCUGCAAUCAGUCUCUGUAUUGGUAUAUCCAGUACUAUCGGGUUUAGGUUCUUUUUAUUUUUCCUUAAAUCUUACUUGUUUCUAGCGUCUUAAGAGUGGUAAUGGCAACAGAGGAUUGAGCAUCA
B22: chr7:158734047:158734148:-|3pUTR|ENSG00000117868|msi1_unk|FALSE|overlapping (ssRNA)
RNA: GGGAGUUCUACAGUCCGACGAUCCUACCCGGAACACACCCUCUCACAGACGUACCAAUGUUAUUUUUAUAAUUUCAUGGAUUUAGUUAUACAUACCUUAAUAGUUUUAUAAAAUUGUUGACAUUUCAGGCAAAUUUGGCCAAUCAACAGAGGAUUGAGCAUCA

What follows are binders tested against T1, UNK ZnF1-6 (called full-length) (human, UniProt Q9C0B0 30-357) (assay: nsRBNS (natural sequence RNA bind-n-seq); RBNS binding buffer (assumed for nsRBNS): 25 mM Tris pH 7.5, 150 mM KCl, 3 mM MgCl2, 0.01% Triton X-100, 500 ug/ml BSA, 20 U/ml SUPERase-In, 4 C; UNK is unkempt and MSI1 is Musashi-1; names of the RNAs are library labels; protein concentration not given here; high values mean tight binding).
T1 sequence: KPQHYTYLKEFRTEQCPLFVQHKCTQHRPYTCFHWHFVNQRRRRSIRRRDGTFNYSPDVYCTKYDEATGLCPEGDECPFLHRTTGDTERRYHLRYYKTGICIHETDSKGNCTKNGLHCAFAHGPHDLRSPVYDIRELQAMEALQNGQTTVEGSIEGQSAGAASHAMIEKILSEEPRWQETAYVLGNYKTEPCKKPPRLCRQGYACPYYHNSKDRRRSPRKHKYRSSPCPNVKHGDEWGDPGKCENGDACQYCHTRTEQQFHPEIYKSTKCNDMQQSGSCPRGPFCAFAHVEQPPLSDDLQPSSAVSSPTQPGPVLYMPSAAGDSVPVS

Binder | binding signal
B1 | 0.752 enrichment R
B2 | 0.492 enrichment R
B3 | 1.21 enrichment R
B4 | 0.553 enrichment R
B5 | 3.29 enrichment R
B6 | 0.264 enrichment R
B7 | 0.303 enrichment R
B8 | 0.668 enrichment R
B9 | 0.262 enrichment R
B10 | 1.43 enrichment R
B11 | 15.6 enrichment R
B12 | 0.411 enrichment R
B13 | 3.04 enrichment R
B14 | 39.5 enrichment R
B15 | 2.16 enrichment R
B16 | 0.387 enrichment R
B17 | 3.62 enrichment R
B18 | 0.548 enrichment R
B19 | 0.604 enrichment R
B20 | 0.432 enrichment R
B21 | 5.54 enrichment R
B22 | 33.1 enrichment R
